# Some of the results follow.
# B1: PhoQ; a variant is named by its letters at X, in order, P23837 (parent)
# chain: MKKLLRLFFPLSLRVRFLLATAAVVLVLSLAYGMVALIGYSVSFDKTTFRLLRGESNLFYTLAKWENNKLHVELPENIDKQSPTMTLIYDENGQLLWAQRDVPWLMKMIQPDWLKSNGFHEIEADVNDTSLLLSGDHSIQQQLQEVREDDDDAEMTHSVAVNVYPATSRMPKLTIVVVDTIPVELKSSYMVWSWFIYVLSANLLLVIPLLWVAAWWSLRPIEALAKEVRELEEHNRELLNPATTRELTSLVRNLNRLLKSERERYDKYRTTLTDLTHSLKTPLXXLQXXLRSLRSEKMSVSDAEPVMLEQISRISQQIGYYLHRASMRGGTLLSRELHPVAPLLDNLTSALNKVYQRKGVNISLDISPEISFVGEQNDFVEVMGNVLDNACKYCLEFVEISARQTDEHLYIVVEDDGPGIPLSKREVIFDRGQRVDTLRPGQGVGLAVAREITEQYEGKIVAGESMLGGARMEVIFGRQHSAPKDE
# Variants of: B1
# Experiment: enrichment ratio after two sorts for PhoP signalling (ratio (wild type AVST 3.29)); higher = more functional
# Conditions: with PhoP (E. coli)
row,Variant,enrichment ratio
1,MNSW,≤ 0.25
2,QHCN,≤ 0.25
3,WIPK,≤ 0.25
4,YMYG,≤ 0.25
5,DMLK,≤ 0.25
6,VGYM,≤ 0.25
7,HSIC,≤ 0.25
8,KFNH,≤ 0.25
9,ECLL,0.596
10,DWRQ,≤ 0.25
11,TSWF,3.89
12,AGCA,15
13,KHYR,≤ 0.25
14,NYYL,≤ 0.25
15,HIKG,≤ 0.25
16,IKTE,≤ 0.25
17,YIGR,≤ 0.25
18,GWPW,≤ 0.25
19,PMTW,≤ 0.25
20,WFCC,≤ 0.25
21,PYQG,≤ 0.25
22,YWVP,≤ 0.25
23,VINK,≤ 0.25
24,FAWW,≤ 0.25

row,Variant,enrichment ratio
1,AVVE,≤ 0.25
2,GLWF,≤ 0.25
3,TTPW,≤ 0.25
4,PAWD,≤ 0.25
5,IRER,≤ 0.25
6,DWCF,≤ 0.25
7,RQRH,≤ 0.25
8,QYDL,≤ 0.25
9,DIMR,≤ 0.25
10,IWEY,≤ 0.25
11,VFLL,≤ 0.25
12,IIRA,≤ 0.25
13,LIRE,≤ 0.25
14,ASFS,≤ 0.25
15,WTII,≤ 0.25
16,QCRQ,≤ 0.25
17,DHMM,≤ 0.25
18,QFLR,≤ 0.25
19,VQKN,≤ 0.25
20,FGTD,≤ 0.25
21,MSYH,6.75
22,RQPS,≤ 0.25
23,QYYH,≤ 0.25
24,VGTS,0.315

row,Variant,enrichment ratio
1,GNDQ,≤ 0.25
2,EAHV,≤ 0.25
3,DCWK,≤ 0.25
4,GTVV,≤ 0.25
5,NAAH,≤ 0.25
6,GPMY,≤ 0.25
7,FTFL,≤ 0.25
8,NQGE,≤ 0.25
9,EKLF,≤ 0.25
10,SCNK,≤ 0.25
11,NMAD,≤ 0.25
12,TWMY,≤ 0.25
13,VRSH,≤ 0.25
14,NIDP,≤ 0.25
15,AIPC,1.63
16,WPVF,≤ 0.25
17,SDCV,2.1
18,MAHH,≤ 0.25
19,WAKN,≤ 0.25
20,PPYS,≤ 0.25
21,IIWN,≤ 0.25
22,NNHD,≤ 0.25
23,IYCH,≤ 0.25
24,HKHV,≤ 0.25

row,Variant,enrichment ratio
1,TFTI,10.2
2,PGHC,≤ 0.25
3,NRGR,≤ 0.25
4,DWCW,≤ 0.25
5,LPMH,≤ 0.25
6,QDIT,≤ 0.25
7,KMVA,≤ 0.25
8,FFNI,≤ 0.25
9,SCWE,≤ 0.25
10,NEPC,≤ 0.25
11,AFMY,≤ 0.25
12,WRNS,≤ 0.25
13,GRQM,≤ 0.25
14,FTHL,≤ 0.25
15,RFYK,≤ 0.25
16,DDCW,≤ 0.25
17,VRNM,≤ 0.25
18,NLEY,≤ 0.25
19,HKLL,1.86
20,IIHG,≤ 0.25
21,ARQL,≤ 0.25
22,IDGF,≤ 0.25
23,WWSH,≤ 0.25
24,IAHY,≤ 0.25

row,Variant,enrichment ratio
1,ECMK,≤ 0.25
2,QHKF,≤ 0.25
3,PYGA,≤ 0.25
4,ILQY,≤ 0.25
5,NQHF,≤ 0.25
6,MIAQ,14.7
7,MKPA,≤ 0.25
8,WAFK,≤ 0.25
9,FMRQ,≤ 0.25
10,WPCA,≤ 0.25
11,EPTD,≤ 0.25
12,QCAH,≤ 0.25
13,TDMA,5.86
14,QIAP,≤ 0.25
15,NWNQ,≤ 0.25
16,PPLM,≤ 0.25
17,YIKG,≤ 0.25
18,FSRY,≤ 0.25
19,VSIT,≤ 0.25
20,MKLC,≤ 0.25
21,ERGT,≤ 0.25
22,MYHI,≤ 0.25
23,TTYG,10.4
24,CFIL,≤ 0.25

row,Variant,enrichment ratio
1,YRTP,≤ 0.25
2,MAHK,≤ 0.25
3,PHYH,≤ 0.25
4,QLSW,≤ 0.25
5,SDGQ,≤ 0.25
6,LFCA,≤ 0.25
7,FRKV,≤ 0.25
8,KQAC,≤ 0.25
9,PVAQ,≤ 0.25
10,KGVK,≤ 0.25
11,YDDS,≤ 0.25
12,NDNS,≤ 0.25
13,PTWR,≤ 0.25
14,LKCC,≤ 0.25
15,TGVM,4.32
16,TFQF,≤ 0.25
17,TTFL,≤ 0.25
18,SKIA,≤ 0.25
19,IVKW,≤ 0.25
20,VPNG,≤ 0.25
21,PDPD,≤ 0.25
22,SLLN,5.28
23,VEAE,≤ 0.25
24,LRKD,≤ 0.25

row,Variant,enrichment ratio
1,ALIL,≤ 0.25
2,KYHF,≤ 0.25
3,HNDI,≤ 0.25
4,EHLA,≤ 0.25
5,IWCK,≤ 0.25
6,LNIP,≤ 0.25
7,QDRP,≤ 0.25
8,TMDG,≤ 0.25
9,NFFR,≤ 0.25
10,LPYT,≤ 0.25
11,HFKC,≤ 0.25
12,RSLF,≤ 0.25
13,MCYG,≤ 0.25
14,SCRF,≤ 0.25
15,DCGH,≤ 0.25
16,NNPT,≤ 0.25
17,SIMC,19.4
18,YTHG,≤ 0.25
19,GCAH,1.33
20,NPTW,≤ 0.25
21,ILSM,≤ 0.25
22,AFTW,≤ 0.25
23,PYTT,≤ 0.25
24,NQGS,≤ 0.25

row,Variant,enrichment ratio
1,LTEW,≤ 0.25
2,KQCG,≤ 0.25
3,IAHN,≤ 0.25
4,QVAM,≤ 0.25
5,KLTI,≤ 0.25
6,DTYP,≤ 0.25
7,RGPV,≤ 0.25
8,AQCY,0.265
9,HICL,1.46
10,LHMC,≤ 0.25
11,MFSH,≤ 0.25
12,FCHL,≤ 0.25
13,RANE,≤ 0.25
14,WYDF,≤ 0.25
15,VVAA,≤ 0.25
16,FRWM,≤ 0.25
17,VEKC,≤ 0.25
18,WQHN,≤ 0.25
19,VYPV,≤ 0.25
20,VQCW,≤ 0.25
21,FYIH,≤ 0.25
22,LASP,≤ 0.25
23,YWGE,≤ 0.25
24,PDGS,≤ 0.25

row,Variant,enrichment ratio
1,TRRT,≤ 0.25
2,LNMT,≤ 0.25
3,LAQT,≤ 0.25
4,EDKR,≤ 0.25
5,WKHN,≤ 0.25
6,QMWT,≤ 0.25
7,TTKY,≤ 0.25
8,MMKA,≤ 0.25
9,RHFW,≤ 0.25
10,GIYA,≤ 0.25
11,LAGA,≤ 0.25
12,MVSC,≤ 0.25
13,DKVR,≤ 0.25
14,MWLT,≤ 0.25
15,VCIL,≤ 0.25
16,INNY,≤ 0.25
17,SQKY,≤ 0.25
18,AIQE,≤ 0.25
19,GFVW,≤ 0.25
20,KLIG,≤ 0.25
21,VAMS,0.988
22,VTYM,≤ 0.25
23,SMFH,≤ 0.25
24,NTTT,≤ 0.25

row,Variant,enrichment ratio
1,IEWC,≤ 0.25
2,LKQL,≤ 0.25
3,MISR,≤ 0.25
4,YDPN,≤ 0.25
5,PHIR,≤ 0.25
6,GHCR,≤ 0.25
7,RSAR,≤ 0.25
8,MDHV,≤ 0.25
9,MIMG,≤ 0.25
10,KNKS,≤ 0.25
11,LHFS,≤ 0.25
12,SQNI,≤ 0.25
13,SGCI,10.3
14,YHKW,≤ 0.25
15,WGDI,≤ 0.25
16,KGIT,≤ 0.25
17,EVAY,≤ 0.25
18,ARRI,≤ 0.25
19,PHSG,≤ 0.25
20,AVLN,11.1
21,AWTY,≤ 0.25
22,YVNN,≤ 0.25
23,SPQG,≤ 0.25
24,LETI,≤ 0.25

row,Variant,enrichment ratio
1,QPIH,≤ 0.25
2,EFYY,≤ 0.25
3,PSTY,≤ 0.25
4,KFIW,≤ 0.25
5,LIYD,≤ 0.25
6,AHKI,≤ 0.25
7,NSLE,≤ 0.25
8,RIFM,≤ 0.25
9,KGLI,≤ 0.25
10,TGRC,≤ 0.25
11,IVIQ,≤ 0.25
12,IHVP,≤ 0.25
13,VSTD,≤ 0.25
14,IHPC,≤ 0.25
15,AAAP,≤ 0.25
16,HREA,≤ 0.25
17,AFVY,≤ 0.25
18,WKKL,≤ 0.25
19,WQVF,≤ 0.25
20,ENRI,≤ 0.25
21,RAAH,≤ 0.25
22,FFEI,≤ 0.25
23,DQWC,≤ 0.25
24,FSTI,1.62

row,Variant,enrichment ratio
1,LVIN,≤ 0.25
2,MCTQ,≤ 0.25
3,GKIK,≤ 0.25
4,HHPN,≤ 0.25
5,VWQF,≤ 0.25
6,LDGV,≤ 0.25
7,LTYC,≤ 0.25
8,DWVL,0.963
9,KQCH,≤ 0.25
10,AIYN,≤ 0.25
11,MMRL,≤ 0.25
12,DHNQ,≤ 0.25
13,YAQG,≤ 0.25
14,DSRR,≤ 0.25
15,EHFV,≤ 0.25
16,RSFW,≤ 0.25
17,LAFR,≤ 0.25
18,EMKC,≤ 0.25
19,TRAY,≤ 0.25
20,RNKD,≤ 0.25
21,GLDY,≤ 0.25
22,QNLD,≤ 0.25
23,WRQM,≤ 0.25
24,YRAW,≤ 0.25

row,Variant,enrichment ratio
1,SWRT,≤ 0.25
2,RLIN,≤ 0.25
3,HQGI,≤ 0.25
4,DGEA,≤ 0.25
5,PEWI,≤ 0.25
6,KCYN,≤ 0.25
7,IKRI,≤ 0.25
8,YHDF,≤ 0.25
9,FHYY,≤ 0.25
10,AKCM,15.6
11,NWRT,≤ 0.25
12,QLAS,≤ 0.25
13,SCKL,≤ 0.25
14,PPQS,≤ 0.25
15,NITH,≤ 0.25
16,WCAF,≤ 0.25
17,QDFV,≤ 0.25
18,TYVE,≤ 0.25

# — a collection of fitness landscapes (doi:10.1126/science.1257360)
